Assay results from PubChem BioAssay AID504832 (National Center for Advancing Translational Sciences (NCATS), 2011).
The campaign covered roughly 310,000 compounds. About 18,000 (5.8%) were called active. This list was built around the results that the source calls inconclusive (neither active nor inactive); the mix of calls is not that of the screen. The call rests on the fitted dose curve; in most records, active means well fitted inhibition curve with a large enough effect; inconclusive means small, poorly fitted or top-dose-only effect, or another doubt; inactive means no such curve, though single readings can be large or run the other way. Potencies of inconclusive entries are left out as doubtful fits.

test: Primary qHTS for delayed death inhibitors of the malarial parasite plastid, 48 hour incubation; settings: P. falciparum luciferase growth in erythrocytes; series mostly up to 28.7 µM; activity change, negative = inhibition: at the top concentration
Outline: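 Read-out is firefly luciferase luminescence from an integrated reporter in P. falciparum, so falling signal marks reduced parasite growth. Infected erythrocytes were at 2% hematocrit and 0.1% parasitemia (final) in Albumax-supplemented RPMI 1640.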
On the % scale 0 is the no-effect control and ±100 the full control effect; potency means the concentration at half of the fitted maximal effect; tags describe the fitted curve by direction and shape.

Compound	Potency	activity change, negative = inhibition
COc1ccc(Nc2nnc(-c3ccc(N4CCOCC4)c([N+](=O)[O-])c3)c3ccccc23)cc1	inconclusive [inhibitor, partial curve, poor fit]	
Fc1ccc(Cn2cccc2C2=NC(c3ccccc3)CO2)cc1 (stereo not drawn)		inactive: 8.42%
COc1ccc(C2CC(c3ccccc3)Nc3nc(NC(=O)c4cccs4)nn32)cc1 (stereo not drawn)	inconclusive [inhibitor, single point]	
Cc1c(/C=N/NC(=O)c2cccnc2)c2ccccc2n1Cc1ccccc1	inconclusive [inhibitor, partial curve, poor fit]	
C=CCn1c(O)c(N=O)c2ccccc21		inactive: -3.37%
CCOc1ccccc1NC(=O)CN(C)S(=O)(=O)c1ccc(OC)c(C)c1	inconclusive [inhibitor, single point]	
CCC1(C)Cc2nc3[nH]c(=S)n(-c4ccccc4C)c(=O)c3cc2CO1 (stereo not drawn)		inactive: -18.2%
O=C(CCc1c[nH]c2ccccc12)N=Nc1c(O)[nH]c2ccccc12		inactive: 18%
O=C(OCC(=O)N1CCCc2ccccc21)c1ccccc1[N+](=O)[O-]		inactive: 16.4%
O=[N+]([O-])c1ccc2oc(C(O)c3cccc(Cl)c3)cc2c1 (stereo not drawn)	inconclusive [inhibitor, single point]	
Cc1cc(O)c(C(=O)/C=C/c2c(F)c(F)c(F)c(F)c2F)c(=O)o1	inconclusive [inhibitor, partial curve, poor fit]	
N#Cc1ccc(OC(=O)C2CCN(C3=NS(=O)(=O)c4ccccc43)CC2)cc1		inactive: -6.99%
COc1ccc(C(=O)Nc2cc(C)nn2-c2cccc(F)c2)cc1OC		inactive: 17.7%
COCCN(C(=S)Nc1cccc(OC)c1)C1CCN(C(C)=O)CC1		inactive: -7.3%
CCN1CCN(c2ccc(N3CCN(S(=O)(=O)c4ccc(C)c([N+](=O)[O-])c4)CC3)nn2)CC1	active: 13.1 µM	
Cc1cc(NC(=O)c2cc(C(C)(C)C)oc2C)no1	inconclusive [inhibitor, single point]	
NC[C@H](Cc1ccccc1)NCCCCC1CCCCC1	inconclusive [inhibitor, single point]	
O=C(O)CCNc1nc(C(F)(F)F)nc2ccccc12		inactive: 0.898%
COc1ccc(C2CC(=O)c3cnc(NC(=O)c4cccc(OC)c4)nc3C2)cc1 (stereo not drawn)	inconclusive [inhibitor, partial curve, poor fit]	
CCN(CC)S(=O)(=O)c1cccc(NC(=O)CN(C)Cc2cccc(OC)c2)c1	inconclusive [inhibitor, single point]	
CCOC(=O)c1[nH]c(C)c(C(=O)N2CCCC(Nc3ccc(C)c(C)c3)C2)c1C (stereo not drawn)		inactive: -8.27%
Cc1cccc(OCc2nnc(SCC(=O)N(C(C)C)C(C)C)n2Cc2ccco2)c1C	active: 11.7 µM	
O=C(CN1CCOCC1)Nc1cccc(C(=O)Nc2cccc(C(F)(F)F)c2)c1	inconclusive [inhibitor, full curve]	

Compound	Potency	activity change, negative = inhibition
O=C(Nc1ccc2ccccc2c1)c1nn(C23CC4CC(CC(C4)C2)C3)cc1Br	inconclusive [inhibitor, single point]	
CSc1ccccc1OCc1cc(C(=O)N(C)Cc2ccncn2)no1		inactive: 6.37%
CCN(CC)C(=O)c1ccc(NC(=O)c2cccc(C(F)(F)F)c2)cc1	inconclusive [inhibitor, single point]	
CCc1ccc2c(c1)C1(NN=C(c3cccc4ccccc34)S1)C(=O)N2 (stereo not drawn)	active: 2.94 µM	
CC(C)(C#CC(O)(c1ccccc1)c1ccccc1)N1CCCCC1	inconclusive [inhibitor, partial curve, poor fit]	
O=C(OCC#CCSc1nnc(-c2ccncc2)o1)c1sc2ccccc2c1Cl	inconclusive [inhibitor, partial curve]	
CC(C)(C)n1nnnc1C(c1cccnc1)N1CCN(c2ccccn2)CC1 (stereo not drawn)	inconclusive [inhibitor, partial curve, poor fit]	
CCc1cc(=O)oc2c3c(cc(OCC(=O)NCc4ccccn4)c12)OC(C)(C)CC3	inconclusive [inhibitor, partial curve, poor fit]	
Cc1onc(-c2ccccc2Cl)c1C(=O)Oc1cccc2cccnc12	inconclusive [inhibitor, partial curve, poor fit]	
CCn1c(CSc2ncccn2)nnc1SCC(=O)N1CCc2ccccc21	inconclusive [inhibitor, single point]	
CC1CCN(C(=O)COC(=O)c2ccc3c(c2)C(=O)N(Cc2ccco2)C3=O)CC1		inactive: 1.97%
CCN(CC)CCNC(=O)c1c(C)n(-c2ccccc2)c2cc(Br)c(OC)cc12	inconclusive [inhibitor, partial curve, poor fit]	
COC(=O)c1ccc(C(=O)OC)c(NC(=S)N2CCN(c3ccccn3)CC2)c1	inconclusive [inhibitor, partial curve, poor fit]	
CCCCn1c(N)c(N(CC(C)C)C(=O)C(C)SCc2nc3sc(C)c(C)c3c(=O)[nH]2)c(=O)[nH]c1=O (stereo not drawn)	active: 11.7 µM	
CC(OC(=O)/C=C/c1ccc2ccccc2n1)C(=O)N(C)c1ccccc1 (stereo not drawn)	inconclusive [inhibitor, single point]	
CCN1CCN(C2=C(NS(=O)(=O)c3ccc(C)cc3)C(=O)c3ccccc3C2=O)CC1	active: 2.94 µM	
Cc1ccc(NC(=O)CN2C(=O)NC(Cc3ccccc3)C2=O)cc1 (stereo not drawn)		inactive: 19.3%
CCOC(=O)c1c(C)[nH]c(C(=O)COC(=O)c2cnccn2)c1C	inconclusive [inhibitor, single point]	
COc1cc(CNCCc2ccc(S(N)(=O)=O)cc2)ccc1OCC(=O)NC1CCCCC1	inconclusive [inhibitor, single point]	
Cc1ccc(CN2C(=O)N/C(=C/c3ccc4c(c3)n(C)c(=O)n4C)C2=O)cc1	inconclusive [inhibitor, partial curve, poor fit]	
O=C(CSc1n[nH]c(-c2ccncc2)n1)Nc1ccccc1C(F)(F)F		inactive: 7.84%
O=C(C[n+]1cc(-c2ccc(Cl)c(Cl)c2)n2c1CCC2)OCc1ccccc1		inactive: 0.118%
CC(=O)c1c(C)oc2ccc(N(C(C)=O)S(=O)(=O)c3ccc(Cl)c([N+](=O)[O-])c3)cc12	inconclusive [inhibitor, full curve, poor fit]	

Compound	Potency	activity change, negative = inhibition
Cc1onc(-c2c(Cl)cccc2Cl)c1COC(=O)c1ccc([N+](=O)[O-])cc1	inconclusive [inhibitor, partial curve, poor fit]	
CCOC(=O)c1cnc2ccccc2c1NCCc1ccc(OC)c(OC)c1	active: 11.7 µM	
Cc1ccc(S(=O)(=O)c2c(N)n(CCN3CCOCC3)c3nc4ccccc4nc23)cc1C	inconclusive [inhibitor, full curve]	
CC(=O)c1cn(CC(=O)Nc2ccc(C)cc2C)c2ccccc12	inconclusive [inhibitor, single point]	
COc1ccc(Oc2c(-c3ccc(O)cc3O)n[nH]c2C)cc1		inactive: 10.6%
CC(C)Oc1ccccc1-c1cc(C(=O)N/N=C/c2cccnc2)c2ccccc2n1		inactive: -8.71%
CCOc1ccccc1N(CC(=O)Nc1ccccc1C(=O)NCc1ccco1)S(C)(=O)=O	inconclusive [inhibitor, single point]	
CCC(=O)c1ccc(OCC(=O)Nc2cccc(S(=O)(=O)N3CCCCCC3)c2)cc1	inconclusive [inhibitor, single point]	
CC(C)CC(C)c1cc(N)nc2nc3ccccc3n12 (stereo not drawn)	active: 10.4 µM	
CCN1CC(CN(C)Cc2nc(-c3ccc(C(F)(F)F)cc3)oc2C)CC1=O (stereo not drawn)	inconclusive [inhibitor, full curve, poor fit]	
Cc1cccc(-n2cnc3c(sc4nc(N5CCOCC5)c5c(c43)CCCC5)c2=O)c1	active: 2.08 µM	
CCN(CC)CCCn1c2c(c(SCC(=O)Nc3ccc(F)c(F)c3)nc1=O)CCC2	inconclusive [inhibitor, full curve, poor fit]	
O=C(Nc1cc(C(F)(F)F)ccc1-n1cnc2ccccc21)c1ccccc1		inactive: -17.7%
CCCC(=O)Nc1ccc2c(c1)nc1n2CCN(C2CCCCC2)C1	inconclusive [inhibitor, single point]	
Cc1ccc(N/N=C(\Cc2nc3ccccc3[nH]2)c2ccccc2)cc1	active: 9.28 µM	
Cc1ccc(C(=O)O/N=C(\N)Cc2cccc3ccccc23)cc1	active: 1.85 µM	
CN(CC(=O)Nc1cccc(Cl)c1)S(=O)(=O)c1ccc2c(c1)n(C)c(=O)c(=O)n2C	inconclusive [inhibitor, partial curve, poor fit]	
COC(=O)C1=C(C)NC(=O)CC1c1ccc(F)c(Br)c1 (stereo not drawn)	inconclusive [inhibitor, single point]	
CCOC(=O)c1c(NC(=O)COC(=O)c2ccc(O)cc2)sc(C(=O)N(C)C)c1C	active: 11.7 µM	
Cc1nc(SCC(=O)N2c3ccccc3NC(=O)CC2C)c2c(C)c(C)sc2n1 (stereo not drawn)	inconclusive [inhibitor, partial curve]	
O=C(COC(=O)c1nc(Cl)ccc1Cl)NC(=O)c1ccccc1		inactive: 41.5%
Cc1ccc(NC(=O)COC(=O)c2ccccc2Cl)cc1S(=O)(=O)N(C)C	inconclusive [inhibitor, partial curve, poor fit]	
